Measurements as given in the supplement of paper PMC4967469.

Legend:
Test in all cases: Viability of human cancer cell lines after 72 h of drug (GDSC screen)
[1] = compound: C=CC(=O)N1CCc2ccc(-n3c(=O)ccc4cnc5ccc(-c6cnn(C)c6)cc5c43)cc21 [QL-XII-47]; details: top dose 10.24 µM; top dose inferred
Procedure: (§1)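 Human cancer cell lines in 384-well plates, medium with 10% serum, drug for 72 h over a 256-fold dose range (nine 2-fold or five 4-fold steps up to the top dose). Adherent lines were fixed and stained with the nucleic acid dye Syto60, suspension lines read with resazurin; signal relative to control wells, capped at 0 and 100%. One two-parameter sigmoid per drug and line, fitted in a mixed model over all curves with the slope shared within a line.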

[2] = compound: CCN1CCC(n2cc(CNc3cc(Cl)c4ncc(C#N)c(Nc5ccc(F)c(Cl)c5)c4c3)nn2)CC1 [KIN001-266]; details: top dose 20 µM; top dose inferred
Procedure: as §1

[3] = compound: O=C1/C(=C/c2cccs2)CC/C1=C\c1cccs1 [CCT007093]; details: top dose 6.6 µM; top dose inferred
Procedure: as §1

[4] = compound: COc1ccc(-c2cc3nccn3c(Nc3ncccc3C(N)=O)n2)cc1OC [BAY 61-3606]; details: top dose 8 µM; top dose inferred
Procedure: as §1

Cell Line: UWB1.289 (ovary, adherent)
- AUC [1]: 0.912
- IC50 [1]: > 10.2 µM
- AUC [2]: 0.864
- IC50 [2]: > 20 µM
- AUC [3]: 0.966
- IC50 [3]: > 6.6 µM

Cell Line: SNU-407 (large intestine, adherent)
- AUC [1]: 0.906
- IC50 [1]: > 10.2 µM
- AUC [2]: 0.968
- IC50 [2]: > 20 µM
- AUC [3]: 0.957
- IC50 [3]: > 6.6 µM

Cell Line: CAL-148 (breast, suspension)
- AUC [4]: 0.96
- IC50 [4]: > 8 µM
- AUC [1]: 0.929
- IC50 [1]: > 10.2 µM
- AUC [2]: 0.83
- IC50 [2]: 11.3 µM

Cell Line: KP-N-YS (neuroblastoma, adherent)
- AUC [4]: 0.843
- AUC [1]: 0.55
- IC50 [1]: 0.896 µM
- AUC [2]: 0.784
- IC50 [2]: 9.86 µM

Cell Line: MOLT-13 (T-cell lymphoblastic leukaemia, suspension)
- AUC [1]: 0.578
- IC50 [1]: 1.02 µM
- AUC [2]: 0.88
- IC50 [2]: 16.4 µM
- AUC [3]: 0.985
- IC50 [3]: > 6.6 µM

Cell Line: MDA-MB-330 (breast, adherent)
- AUC [4]: 0.978
- IC50 [4]: > 8 µM
- AUC [1]: 0.688
- IC50 [1]: 2.34 µM
- AUC [2]: 0.952
- IC50 [2]: > 20 µM

Cell Line: SISO (cervix, adherent)
- AUC [4]: 0.888
- IC50 [4]: > 8 µM
- AUC [1]: 0.549
- IC50 [1]: 0.864 µM
- AUC [2]: 0.935
- IC50 [2]: > 20 µM

Cell Line: SW756 (cervix, adherent)
- AUC [4]: 0.958
- IC50 [4]: > 8 µM
- AUC [1]: 0.978
- IC50 [1]: > 10.2 µM
- AUC [2]: 0.984
- IC50 [2]: > 20 µM

Cell Line: NCI-H2171 (small cell lung carcinoma, suspension)
- AUC [4]: 0.863
- IC50 [4]: 5.48 µM
- AUC [1]: 0.354
- IC50 [1]: 0.268 µM
- AUC [2]: 0.945
- IC50 [2]: > 20 µM

Cell Line: HT-1376 (bladder, adherent)
- AUC [4]: 0.777
- IC50 [4]: 3.8 µM
- AUC [1]: 0.985
- IC50 [1]: > 10.2 µM
- AUC [2]: 0.982
- IC50 [2]: > 20 µM

Cell Line: RCC-ER (kidney, adherent)
- AUC [1]: 0.789
- IC50 [1]: 5.12 µM
- AUC [2]: 0.959
- IC50 [2]: > 20 µM
- AUC [3]: 0.978
- IC50 [3]: > 6.6 µM

Cell Line: CADO-ES1 (Ewing sarcoma, suspension)
- AUC [1]: 0.516
- IC50 [1]: 0.71 µM
- AUC [2]: 0.824
- IC50 [2]: 12.2 µM
- AUC [3]: 0.96
- IC50 [3]: > 6.6 µM

Cell Line: HCC-78 (lung adenocarcinoma, adherent)
- AUC [4]: 0.826
- IC50 [4]: 6.02 µM
- AUC [1]: 0.6
- IC50 [1]: 1.27 µM
- AUC [2]: 0.837
- IC50 [2]: 16.9 µM

Cell Line: NCI-H810 (large cell lung carcinoma, adherent)
- AUC [4]: 0.797
- IC50 [4]: 3.59 µM
- AUC [1]: 0.333
- IC50 [1]: 0.224 µM
- AUC [2]: 0.853
- IC50 [2]: 14.6 µM

Cell Line: RCC-JF (kidney, adherent)
- AUC [1]: 0.568
- IC50 [1]: 1.01 µM
- AUC [2]: 0.849
- IC50 [2]: 18 µM
- AUC [3]: 0.96
- IC50 [3]: > 6.6 µM

Cell Line: SNU-C2B (large intestine, adherent)
- AUC [4]: 0.682
- IC50 [4]: 1.91 µM
- AUC [1]: 0.724
- IC50 [1]: 3.46 µM
- AUC [2]: 0.865
- IC50 [2]: > 20 µM

Cell Line: DB (B-cell lymphoma, suspension)
- AUC [4]: 0.833
- IC50 [4]: 6.09 µM
- AUC [1]: 0.681
- IC50 [1]: 2.2 µM
- AUC [2]: 0.837
- IC50 [2]: 15.9 µM

Cell Line: LCLC-97TM1 (large cell lung carcinoma, adherent)
- AUC [4]: 0.517
- IC50 [4]: 0.559 µM
- AUC [1]: 0.432
- IC50 [1]: 0.41 µM
- AUC [2]: 0.808
- IC50 [2]: 11.6 µM

Cell Line: KMS-11 (myeloma, suspension)
- AUC [1]: 0.53
- IC50 [1]: 0.761 µM
- AUC [2]: 0.877
- IC50 [2]: 15.1 µM
- AUC [3]: 0.981
- IC50 [3]: > 6.6 µM

A lower IC50 marks a more sensitive line; a limit (>, <) means that the fit lies beyond the doses tested. AUC, from the same fit, is the share of area under the viability curve across the 256-fold dose range; it is 1 without any effect and falls as sensitivity rises. The top dose, if marked as inferred, is not printed in the source and was worked back from the curve model.
